Test results published in paper PMC9900090.
No constants are given. Whether binding was seen depends on the method and setting. In cells and extracts the contact can be indirect. Some results given as binding are weak or reduced against the parent protein; the word gives no strength.

Amino acid sequences for entries named in this document (tags omitted). Chains listed by the source or under a name are the forms on record and can include a tag or linker. Residues count along the entry.
RPEL1 fragment of cardiac MYOCD (aa 1–50), GFP‐tagged (Q8VIM5, residues 1-50): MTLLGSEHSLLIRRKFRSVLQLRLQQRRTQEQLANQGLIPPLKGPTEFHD
MBM fragment of cardiac MYOCD (aa 1–27), GFP‐tagged (Q8VIM5, residues 1-27): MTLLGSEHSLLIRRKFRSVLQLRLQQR
RPEL2 fragment of cardiac MYOCD (aa 51–84), GFP‐tagged (Q8VIM5, residues 51-84): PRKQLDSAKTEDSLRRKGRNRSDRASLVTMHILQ
RPEL3 fragment of cardiac MYOCD (aa 85–127), GFP‐tagged (Q8VIM5, residues 85-127): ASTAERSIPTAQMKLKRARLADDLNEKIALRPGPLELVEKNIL
UniProt Q9H9F9: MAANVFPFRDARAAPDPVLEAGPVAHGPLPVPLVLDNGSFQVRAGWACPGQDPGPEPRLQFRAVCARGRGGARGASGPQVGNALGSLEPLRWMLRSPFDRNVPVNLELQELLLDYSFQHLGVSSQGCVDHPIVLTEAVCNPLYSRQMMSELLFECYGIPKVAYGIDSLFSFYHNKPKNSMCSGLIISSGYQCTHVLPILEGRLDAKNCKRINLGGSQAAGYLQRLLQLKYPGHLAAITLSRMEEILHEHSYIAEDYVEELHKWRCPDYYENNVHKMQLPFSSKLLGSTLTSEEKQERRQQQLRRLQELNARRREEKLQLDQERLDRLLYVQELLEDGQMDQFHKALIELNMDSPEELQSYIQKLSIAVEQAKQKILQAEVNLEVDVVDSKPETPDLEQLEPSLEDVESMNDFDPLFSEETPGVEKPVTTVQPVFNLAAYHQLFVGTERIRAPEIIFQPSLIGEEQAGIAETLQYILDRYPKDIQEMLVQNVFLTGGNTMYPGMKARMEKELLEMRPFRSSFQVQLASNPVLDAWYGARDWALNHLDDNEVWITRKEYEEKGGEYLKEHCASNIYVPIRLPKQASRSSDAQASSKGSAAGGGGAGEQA
UniProt Q8CFN5: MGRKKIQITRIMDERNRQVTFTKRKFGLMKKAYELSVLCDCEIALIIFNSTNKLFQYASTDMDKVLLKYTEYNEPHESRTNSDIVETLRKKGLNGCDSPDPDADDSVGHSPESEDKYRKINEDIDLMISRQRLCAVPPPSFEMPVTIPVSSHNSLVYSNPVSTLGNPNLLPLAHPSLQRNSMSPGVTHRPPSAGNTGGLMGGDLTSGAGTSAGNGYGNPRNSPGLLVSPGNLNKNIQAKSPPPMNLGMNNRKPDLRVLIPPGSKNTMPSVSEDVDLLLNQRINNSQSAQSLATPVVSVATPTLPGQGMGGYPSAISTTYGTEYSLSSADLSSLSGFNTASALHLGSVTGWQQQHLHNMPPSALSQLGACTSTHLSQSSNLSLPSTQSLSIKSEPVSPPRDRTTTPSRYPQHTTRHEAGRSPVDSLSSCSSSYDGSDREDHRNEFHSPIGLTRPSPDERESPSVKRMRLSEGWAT

How the values were obtained:
[1] = biological target: RPEL1 fragment of cardiac MYOCD (aa 1–50), GFP‐tagged (mouse) (UniProt Q8VIM5); assay: co-IP; competitive binding of in vitro translated myc‐ARP5 and MEF2C‐HA to RPEL1‐GFP; which protein was precipitated is not told; western blot
[2] = biological target: FLAG‐tagged ARP5 (actin‐related protein 5) (human) (UniProt Q9H9F9); assay: co-IP; in vitro translated proteins (wheat germ) mixed in binding buffer (0.1% NP‐40, 10% glycerol, 50 mM imidazole, protease inhibitors in 0.5× PBS), incubated with FLAG‐Affinity Gels for 6 h; FLAG‐ARP5 or its fragments held; washed with 1% Triton X‐100, 0.1% sodium deoxycholate, 150 mM KCl, 20 mM Tris–HCl pH 6.8; western blot

Row | Substance | binding [1] | binding [2]
1 | MEF2C‐HA (myocyte enhancer factor 2C, HA‐tagged) (from UniProt Q8CFN5 1-474) | binds | 
2 | RPEL3 fragment of cardiac MYOCD (aa 85–127), GFP‐tagged (from UniProt Q8VIM5 85-127) (domain or fragment) |  | no binding
3 | RPEL2 fragment of cardiac MYOCD (aa 51–84), GFP‐tagged (from UniProt Q8VIM5 51-84) (domain or fragment) |  | binds weakly
4 | MBM fragment of cardiac MYOCD (aa 1–27), GFP‐tagged (from UniProt Q8VIM5 1-27) (domain or fragment) |  | binds
5 | myc‐ARP5 (actin‐related protein 5, myc‐tagged) (from UniProt Q9H9F9 1-607) | binds | 
6 | RPEL1 fragment of cardiac MYOCD (aa 1–50), GFP‐tagged (from UniProt Q8VIM5 1-50) (domain or fragment) |  | binds
